The values that follow come from a collection of fitness landscapes (doi:10.1016/j.celrep.2020.107928).

First the molecules themselves.
B1: Caulobacter ParB omega fusion; a variant is named by its letters at X, in order, B8GW30 (parent)
chain: MESVVVGEPGMSEGRRGLGRGLSALLGEVDAAPAQAPGEQLGGSREAPIEILQRNPDQPRRTFREEDLEDLSNSIREKGVLQPILVRPSPDTAGEYQIVAGERAWRAAQRAGLKTVPIMVRELDDLAVLEIGIIENVQRADLNVLEEALSYKVLMEKFERTQENIAQTIGKSXSHVANXMRLLXLPDEVQSYLVSGELTAXHARAIAAAADPVALAKQIIEGGLSVRETEALARKAPNLSAGKSKGGRPPRVKDTDTQALESDLSSVLGLDVSIDHRGSTGTLTITYATLEQLDDLCNRLTRGI

Whole data set: some 81,000 sequences, median “one-hybrid fitness for binding NBS DNA” near -0.1, cut for the highest 2% near 0.36. The list shows a part of the results.

Variants of B1 are the subject of this test. Description: one-hybrid fitness for binding NBS DNA (the Noc-binding site; scaled: cognate 1, non-cognate 0); higher = stronger binding. To be noted: with NBS DNA site. The method, boiled down: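 In E. coli USO, a HIS3 reporter with its site placed 19 bp from the promoter was used to select Caulobacter ParB variants randomised at four specificity codons. Growth lasted 48 hours at 37°C on histidine-free M9 containing 0.1 mM IPTG and 5 mM 3-AT. Fitness was taken as the log change in variant-to-wild-type read ratio from Illumina sequencing of pre- and post-selection plasmids, rescaled between the non-cognate and cognate sites.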
MKLS: the “one-hybrid fitness for binding NBS DNA” value is ≤ 0.2.

As to PLMV, the “one-hybrid fitness for binding NBS DNA” value is ≤ 0.2.

In the case of AGRC, the “one-hybrid fitness for binding NBS DNA” value is ≤ 0.2.

In the case of LWYF, the “one-hybrid fitness for binding NBS DNA” value is ≤ 0.2.

For the variant RAKD, the “one-hybrid fitness for binding NBS DNA” value is ≤ 0.2.

On to QFHC, for which the “one-hybrid fitness for binding NBS DNA” value is ≤ 0.2.

For the variant MSND, the “one-hybrid fitness for binding NBS DNA” value was ≤ 0.2.

In the case of VQGS, the “one-hybrid fitness for binding NBS DNA” value was ≤ 0.2.

CVIR: the “one-hybrid fitness for binding NBS DNA” value was ≤ 0.2.

Consider VSFC, for which the “one-hybrid fitness for binding NBS DNA” value is ≤ 0.2.

Regarding KWRE, the “one-hybrid fitness for binding NBS DNA” value was ≤ 0.2.

In the case of WCIG, the “one-hybrid fitness for binding NBS DNA” value is ≤ 0.2.

In the case of RYPL, the “one-hybrid fitness for binding NBS DNA” value is ≤ 0.2.

Turning to VAMV, the “one-hybrid fitness for binding NBS DNA” value is ≤ 0.2.

Take LVQT: the “one-hybrid fitness for binding NBS DNA” value was ≤ 0.2.

Consider RVFS, for which the “one-hybrid fitness for binding NBS DNA” value worked out at 0.34.

Turning to SASL, the “one-hybrid fitness for binding NBS DNA” value is ≤ 0.2.

In the case of NNWC, the “one-hybrid fitness for binding NBS DNA” value was ≤ 0.2.

Consider FACK, for which the “one-hybrid fitness for binding NBS DNA” value is ≤ 0.2.

LPNW: the “one-hybrid fitness for binding NBS DNA” value was ≤ 0.2.

As for HVPK, the “one-hybrid fitness for binding NBS DNA” value was ≤ 0.2.

As for IYKT, the “one-hybrid fitness for binding NBS DNA” value was ≤ 0.2.

Turning to KHRS, the “one-hybrid fitness for binding NBS DNA” value was 0.233.

WYSG: the “one-hybrid fitness for binding NBS DNA” value was ≤ 0.2.

On to CSHT, for which the “one-hybrid fitness for binding NBS DNA” value was ≤ 0.2.

For the variant MDVS, the “one-hybrid fitness for binding NBS DNA” value is ≤ 0.2.

In the case of DLSI, the “one-hybrid fitness for binding NBS DNA” value was ≤ 0.2.

For YWGT, the “one-hybrid fitness for binding NBS DNA” value is ≤ 0.2.

For ILER, the “one-hybrid fitness for binding NBS DNA” value was ≤ 0.2.

Regarding TPYC, the “one-hybrid fitness for binding NBS DNA” value was ≤ 0.2.

SIGA: the “one-hybrid fitness for binding NBS DNA” value was ≤ 0.2.

Take VVHT: the “one-hybrid fitness for binding NBS DNA” value was ≤ 0.2.

Turning to HWVS, the “one-hybrid fitness for binding NBS DNA” value was ≤ 0.2.

Consider LHHS, for which the “one-hybrid fitness for binding NBS DNA” value is ≤ 0.2.

For FLCG, the “one-hybrid fitness for binding NBS DNA” value was ≤ 0.2.

In the case of ATME, the “one-hybrid fitness for binding NBS DNA” value was ≤ 0.2.

As for TMKC, the “one-hybrid fitness for binding NBS DNA” value was ≤ 0.2.

Take QRDM: the “one-hybrid fitness for binding NBS DNA” value was ≤ 0.2.

With LTWY, the “one-hybrid fitness for binding NBS DNA” value was ≤ 0.2.

Consider SSQP, for which the “one-hybrid fitness for binding NBS DNA” value was ≤ 0.2.

With TSSI, the “one-hybrid fitness for binding NBS DNA” value is ≤ 0.2.

For the variant AEGC, the “one-hybrid fitness for binding NBS DNA” value is ≤ 0.2.

With LWRY, the “one-hybrid fitness for binding NBS DNA” value was ≤ 0.2.

Turning to CYKG, the “one-hybrid fitness for binding NBS DNA” value is ≤ 0.2.

As to NPQT, the “one-hybrid fitness for binding NBS DNA” value is ≤ 0.2.

As to TRWS, the “one-hybrid fitness for binding NBS DNA” value was ≤ 0.2.

As to SYEG, the “one-hybrid fitness for binding NBS DNA” value is ≤ 0.2.

Turning to SIRS, the “one-hybrid fitness for binding NBS DNA” value is ≤ 0.2.

With CRTR, the “one-hybrid fitness for binding NBS DNA” value is ≤ 0.2.

Turning to WTRY, the “one-hybrid fitness for binding NBS DNA” value is ≤ 0.2.

For PRSM, the “one-hybrid fitness for binding NBS DNA” value was ≤ 0.2.

Regarding YECT, the “one-hybrid fitness for binding NBS DNA” value is ≤ 0.2.

Regarding RFGN, the “one-hybrid fitness for binding NBS DNA” value was ≤ 0.2.

Turning to NPPL, the “one-hybrid fitness for binding NBS DNA” value is ≤ 0.2.

As for SRIE, the “one-hybrid fitness for binding NBS DNA” value was ≤ 0.2.

For PYGY, the “one-hybrid fitness for binding NBS DNA” value was ≤ 0.2.

Regarding HRAH, the “one-hybrid fitness for binding NBS DNA” value is ≤ 0.2.

With NYTA, the “one-hybrid fitness for binding NBS DNA” value is ≤ 0.2.

In the case of SLMG, the “one-hybrid fitness for binding NBS DNA” value was ≤ 0.2.

Take TICG: the “one-hybrid fitness for binding NBS DNA” value was ≤ 0.2.

As to DVAC, the “one-hybrid fitness for binding NBS DNA” value was ≤ 0.2.

For the variant YSKF, the “one-hybrid fitness for binding NBS DNA” value is ≤ 0.2.

As to RRQS, the “one-hybrid fitness for binding NBS DNA” value came out at 0.69.

For the variant QIMT, the “one-hybrid fitness for binding NBS DNA” value came out at 0.219.

In the case of HCRT, the “one-hybrid fitness for binding NBS DNA” value is ≤ 0.2.

On to DRNF, for which the “one-hybrid fitness for binding NBS DNA” value is ≤ 0.2.

Take DWQG: the “one-hybrid fitness for binding NBS DNA” value was ≤ 0.2.

With YNNC, the “one-hybrid fitness for binding NBS DNA” value was ≤ 0.2.

For the variant DTII, the “one-hybrid fitness for binding NBS DNA” value is ≤ 0.2.

As to HNFS, the “one-hybrid fitness for binding NBS DNA” value was ≤ 0.2.

As to SKQA, the “one-hybrid fitness for binding NBS DNA” value is ≤ 0.2.

Take IGHS: the “one-hybrid fitness for binding NBS DNA” value was ≤ 0.2.

Regarding PERS, the “one-hybrid fitness for binding NBS DNA” value is ≤ 0.2.

Turning to WKAK, the “one-hybrid fitness for binding NBS DNA” value was ≤ 0.2.

WTGR: the “one-hybrid fitness for binding NBS DNA” value is ≤ 0.2.

In the case of QCNN, the “one-hybrid fitness for binding NBS DNA” value came out at 0.208.

IIAV: the “one-hybrid fitness for binding NBS DNA” value was ≤ 0.2.

Turning to SAEW, the “one-hybrid fitness for binding NBS DNA” value is ≤ 0.2.

With PMLR, the “one-hybrid fitness for binding NBS DNA” value was ≤ 0.2.

Take AFFM: the “one-hybrid fitness for binding NBS DNA” value is ≤ 0.2.

For KKHM, the “one-hybrid fitness for binding NBS DNA” value was ≤ 0.2.

On to YVIS, for which the “one-hybrid fitness for binding NBS DNA” value is ≤ 0.2.

In the case of ESQL, the “one-hybrid fitness for binding NBS DNA” value is ≤ 0.2.

Consider QMNL, for which the “one-hybrid fitness for binding NBS DNA” value is ≤ 0.2.

Regarding HPYN, the “one-hybrid fitness for binding NBS DNA” value is ≤ 0.2.

In the case of AMLY, the “one-hybrid fitness for binding NBS DNA” value is ≤ 0.2.

In the case of KITF, the “one-hybrid fitness for binding NBS DNA” value was ≤ 0.2.

With SVLA, the “one-hybrid fitness for binding NBS DNA” value was ≤ 0.2.

As to VKVM, the “one-hybrid fitness for binding NBS DNA” value is ≤ 0.2.

Turning to EYEL, the “one-hybrid fitness for binding NBS DNA” value was ≤ 0.2.

As to IPTR, the “one-hybrid fitness for binding NBS DNA” value was ≤ 0.2.

With SHSL, the “one-hybrid fitness for binding NBS DNA” value was ≤ 0.2.

With KYKH, the “one-hybrid fitness for binding NBS DNA” value was ≤ 0.2.

Take YEPG: the “one-hybrid fitness for binding NBS DNA” value was ≤ 0.2.

FSTC: the “one-hybrid fitness for binding NBS DNA” value is ≤ 0.2.

In the case of SAHQ, the “one-hybrid fitness for binding NBS DNA” value is ≤ 0.2.

Consider EAVI, for which the “one-hybrid fitness for binding NBS DNA” value is ≤ 0.2.

HTHS: the “one-hybrid fitness for binding NBS DNA” value was ≤ 0.2.

As to RNCH, the “one-hybrid fitness for binding NBS DNA” value is ≤ 0.2.

Regarding QLFL, the “one-hybrid fitness for binding NBS DNA” value is ≤ 0.2.

Turning to FFTS, the “one-hybrid fitness for binding NBS DNA” value was ≤ 0.2.

In the case of ESCR, the “one-hybrid fitness for binding NBS DNA” value is ≤ 0.2.

Turning to APVG, the “one-hybrid fitness for binding NBS DNA” value was ≤ 0.2.

In the case of TVPR, the “one-hybrid fitness for binding NBS DNA” value is ≤ 0.2.

As for PWMS, the “one-hybrid fitness for binding NBS DNA” value was ≤ 0.2.

As to RKNH, the “one-hybrid fitness for binding NBS DNA” value is 0.335.

RMWI: the “one-hybrid fitness for binding NBS DNA” value was ≤ 0.2.

Consider WCEG, for which the “one-hybrid fitness for binding NBS DNA” value is ≤ 0.2.

As for SGSA, the “one-hybrid fitness for binding NBS DNA” value was ≤ 0.2.

Consider KVNR, for which the “one-hybrid fitness for binding NBS DNA” value is ≤ 0.2.

Take WYPF: the “one-hybrid fitness for binding NBS DNA” value is ≤ 0.2.

Take FCSW: the “one-hybrid fitness for binding NBS DNA” value is ≤ 0.2.

Regarding AMLD, the “one-hybrid fitness for binding NBS DNA” value is ≤ 0.2.

In the case of CSFF, the “one-hybrid fitness for binding NBS DNA” value was ≤ 0.2.

As to LLLG, the “one-hybrid fitness for binding NBS DNA” value is ≤ 0.2.

Take GIYC: the “one-hybrid fitness for binding NBS DNA” value was ≤ 0.2.

Take VAMR: the “one-hybrid fitness for binding NBS DNA” value was ≤ 0.2.

Regarding EEHV, the “one-hybrid fitness for binding NBS DNA” value was ≤ 0.2.

For the variant QTMG, the “one-hybrid fitness for binding NBS DNA” value was ≤ 0.2.

Regarding WMVC, the “one-hybrid fitness for binding NBS DNA” value is ≤ 0.2.

As to LTYG, the “one-hybrid fitness for binding NBS DNA” value was ≤ 0.2.

With FIMG, the “one-hybrid fitness for binding NBS DNA” value was ≤ 0.2.

On to PWWG, for which the “one-hybrid fitness for binding NBS DNA” value is ≤ 0.2.

Regarding QWYA, the “one-hybrid fitness for binding NBS DNA” value is ≤ 0.2.

As for RAFK, the “one-hybrid fitness for binding NBS DNA” value was ≤ 0.2.

For LWWT, the “one-hybrid fitness for binding NBS DNA” value is ≤ 0.2.

For PAMS, the “one-hybrid fitness for binding NBS DNA” value is ≤ 0.2.

With PTPM, the “one-hybrid fitness for binding NBS DNA” value is ≤ 0.2.

LQGT: the “one-hybrid fitness for binding NBS DNA” value is ≤ 0.2.

On to ATMK, for which the “one-hybrid fitness for binding NBS DNA” value is ≤ 0.2.

As to IYDT, the “one-hybrid fitness for binding NBS DNA” value is ≤ 0.2.

RMMA: the “one-hybrid fitness for binding NBS DNA” value is ≤ 0.2.

Turning to RPGG, the “one-hybrid fitness for binding NBS DNA” value was ≤ 0.2.

Take RWAH: the “one-hybrid fitness for binding NBS DNA” value was ≤ 0.2.

On to QSVS, for which the “one-hybrid fitness for binding NBS DNA” value was found to be 0.228.

With RYCG, the “one-hybrid fitness for binding NBS DNA” value is ≤ 0.2.

For the variant VRDA, the “one-hybrid fitness for binding NBS DNA” value is ≤ 0.2.

Consider TLTW, for which the “one-hybrid fitness for binding NBS DNA” value is ≤ 0.2.

CLWC: the “one-hybrid fitness for binding NBS DNA” value is ≤ 0.2.

For the variant MVTS, the “one-hybrid fitness for binding NBS DNA” value was ≤ 0.2.

As for SQFT, the “one-hybrid fitness for binding NBS DNA” value is ≤ 0.2.

On to HVTY, for which the “one-hybrid fitness for binding NBS DNA” value was ≤ 0.2.

Consider HQER, for which the “one-hybrid fitness for binding NBS DNA” value was ≤ 0.2.

Take LNYT: the “one-hybrid fitness for binding NBS DNA” value is ≤ 0.2.

With VGYS, the “one-hybrid fitness for binding NBS DNA” value is ≤ 0.2.

For the variant YYFR, the “one-hybrid fitness for binding NBS DNA” value was ≤ 0.2.

As for LAKP, the “one-hybrid fitness for binding NBS DNA” value was ≤ 0.2.

ASER: the “one-hybrid fitness for binding NBS DNA” value is ≤ 0.2.

Turning to GMDC, the “one-hybrid fitness for binding NBS DNA” value is ≤ 0.2.

As to LRNW, the “one-hybrid fitness for binding NBS DNA” value was ≤ 0.2.

LWFR: the “one-hybrid fitness for binding NBS DNA” value was ≤ 0.2.

Consider AHTP, for which the “one-hybrid fitness for binding NBS DNA” value was ≤ 0.2.

For the variant GGKV, the “one-hybrid fitness for binding NBS DNA” value was ≤ 0.2.
